# Experimental data taken from PubChem BioAssay AID1466 (National Center for Advancing Translational Sciences (NCATS), 2008).
# Among all 200,000 compounds or so, about 10 (0.005%) were called active. Inconclusive means that the source gave no clear call. Such entries were picked first, then a sample of the others. Calls come from the whole dose curve; as a rule, active = well fitted inhibition curve with a large enough effect; inconclusive = small, poorly fitted or top-dose-only effect, or effect the other way, or another doubt; inactive = no such curve, though single readings can be large or run the other way. No potency is given beside an inconclusive call; the fits are too rough.
# Biological target: Lysosomal alpha-glucosidase (Homo sapiens) (UniProt P10253)
# Assay: qHTS Assay for Inhibitors of Human alpha-Glucosidase as a Potential Chaperone Treatment of Pompe Disease;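 for activity change, negative = inhibition: plate controls were uninhibited enzyme wells for no effect and no-enzyme background for full effect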
# Settings: purified human GAA, 4-MU-alpha-glucoside fluorescence; activity change, negative = inhibition: at 76.9 µM (top of the series) unless noted
# Method in brief: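 Activity normalized between no-enzyme (basal) and enzyme-only wells. Conditions: 4 nM human enzyme, 400 uM fluorogenic substrate, citrate/phosphate pH 5.0 with Tween-20, 20 min room temperature, compounds up to 77 uM.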
# Potency is the fitted concentration of half-maximal effect; tags give direction and shape of the fitted curve.
SMILES,"activity change, negative = inhibition",Potency
CCC(=O)Oc1ccc2c(C)cc(=O)oc2c1C,inconclusive: 329% [activator],
O=C(NNC(=O)c1cc(O)c(O)c(O)c1)NC1CCCCC1,inactive: -5.71%,
Cc1ccc(-c2cc(C(F)(F)F)n3ncc(C(=O)N4CCCCC4c4cccnc4)c3n2)cc1 (centres undefined),,"inconclusive [activator, partial curve, poor fit]"
O=C1OCC2=C1C(c1ccc(F)cc1)c1cc3c(cc1N2)OCCO3 (centres undefined),,"inconclusive [activator, partial curve]"
COc1cc(/C=C(/C#N)c2ccc(F)cc2)ccc1Oc1ccc([N+](=O)[O-])cn1,inconclusive: -17.7% [inhibitor],
O=C(NCC(=O)N(c1cccnc1)C(C(=O)NC1CCCC1)c1cccs1)c1cccs1 (centres undefined),inconclusive: 13.1% [activator],
c1ccc2c(N3CCCCC3)nc(N3CCCC3)nc2c1,inconclusive: 19% [activator],
Cc1c(NC(=S)N/N=C\c2ccccc2O)c(=O)n(-c2ccccc2)n1C,,"inconclusive [activator, single point]"
Oc1csc(Cc2nc(-c3ccccc3F)cs2)n1,,"inconclusive [inhibitor, single point]"
CC(=O)NN1C(=O)c2ccccc2NC1c1ccoc1 (centres undefined),,"inconclusive [activator, partial curve]"
CNC(=S)Nc1ccc(Br)cc1,inactive: 4.59%,
COc1ccc(CNC(=O)c2cnc3scc(C)n3c2=O)cc1,inconclusive: 15.7% [activator],
Cc1ccc2nc(-c3ccc(NS(=O)(=O)c4ccc(F)cc4)cc3)sc2c1,,"inconclusive [activator, partial curve]"
Cc1c(NC(=O)/C(C#N)=C/c2c(Oc3ccccc3)nc3ccccn3c2=O)c(=O)n(-c2ccccc2)n1C,,"inconclusive [inhibitor, single point]"
Cc1cc(C)cc(NC(=O)/C(C#N)=C/c2cn(CC(=O)NCc3ccco3)c3ccccc23)c1,inconclusive: 21.8% [activator],
CCOC(=O)/C(=N/Nc1ccc(OC)cc1)Sc1nnc(CCc2ccccc2)n1-c1ccccc1,inconclusive: -15.1% [inhibitor],
COc1ccccc1NC(=O)NCC(c1ccco1)N1CCCCC1 (centres undefined),,"inconclusive [activator, full curve, poor fit]"
Cc1cc(=O)oc2cc(OCC(=O)Nc3cccc(S(=O)(=O)N(C)C)c3)ccc12,,"inconclusive [activator, single point]"
Cc1ccc(NC(=O)c2cc(NC(=O)c3ccccc3C(=O)O)ccc2N2CCCCC2)cc1,,"inconclusive [inhibitor, single point]"
C=CCNc1nc(N)c(C(=C(C#N)C#N)c2ccc(Br)cc2)s1,,"inconclusive [activator, partial curve]"
COc1ccccc1[C@@H]1C(c2cccc(Cl)c2)=NN(c2ccccc2)[C@H]1C(=O)N1CCOC1=O,,"inconclusive [activator, single point]"
COc1cccc(NC(=O)CCP(C)(=O)O)c1,,"inconclusive [inhibitor, full curve, poor fit]"

SMILES,"activity change, negative = inhibition",Potency
Cc1cccc(-n2c(-c3ccco3)nc3nc4ccccc4nc32)c1,inconclusive: 25.7% [activator],
Cc1onc(-c2ccccc2Cl)c1C(=O)N1CCN(c2cccc(Cl)c2)CC1,inconclusive: -15.1% [inhibitor],
O=C(COc1ccccc1[N+](=O)[O-])N/N=C/c1ccc(O)c([N+](=O)[O-])c1,inactive: -2.98%,
COC(=O)c1cn(Nc2ncc(C(F)(F)F)cc2Cl)c(=O)c2ccccc12,,"inconclusive [inhibitor, single point]"
Clc1cccc(N2CCN(Cc3nnc(-c4ccccc4)o3)CC2)c1,,"inconclusive [inhibitor, partial curve, poor fit]"
Cc1cccc(/C=C2\CCC(=C3SCCCS3)C2=O)c1,,"inconclusive [activator, single point]"
C/C(=N\Nc1nc2ccccc2[nH]1)c1ccc2c(c1)OCO2,inactive: 5.03%,
Cn1nc(C(=O)N2CCN(S(=O)(=O)c3ccccc3)CC2)c2ccccc2c1=O,,"inconclusive [inhibitor, partial curve]"
CCN(CCn1cccn1)Cc1nc(-c2ccc(OC)cc2)no1,,"inconclusive [inhibitor, single point]"
CCOC(=O)NC1(NC2CCCCC2)Oc2ccccc2O1,inactive: 2.98%,
Brc1ccccc1C1=Nn2c(nnc2-c2ccccc2)SC1,,"inconclusive [inhibitor, full curve]"
COc1ccc(CCNc2ncnc3c2oc2ccccc23)cc1OC,,"inconclusive [inhibitor, single point]"
COc1ccc(Cl)cc1NC(=O)C12CCC(C)(C(=O)O1)C2(C)C (centres undefined),,"inconclusive [inhibitor, partial curve, poor fit]"
CCOC(=O)c1cc(-c2cc3ccccc3o2)nc2c1c(=O)[nH]c(=O)n2CCOC,,"inconclusive [activator, partial curve]"
CCCn1c(-c2cccs2)nc2nc3ccccc3nc21,,"inconclusive [activator, partial curve]"
COc1ccc(-c2nnn(CC(=O)c3c[nH]c4ccccc34)n2)cc1OC,,"inconclusive [inhibitor, single point]"
O=S(=O)(Nc1ccc(-c2nnc(SCc3ccc(Cl)cc3)o2)cc1)c1ccccc1,,"inconclusive [inhibitor, single point]"
N#CCc1nc(CSc2nc3ccccc3s2)cs1,inconclusive: -15.5% [inhibitor],
COCCCNc1nc2ccccc2nc1NS(=O)(=O)c1cccs1,inconclusive: -16.8% [inhibitor],
CC(C)c1ccc(N(CC(=O)Nc2ccc(S(=O)(=O)N3CCOCC3)cc2)S(C)(=O)=O)cc1,,"inconclusive [inhibitor, partial curve]"
Cc1ccc(C(=O)N2CCCC(c3nc4c(nnn4Cc4ccccc4)c(=O)[nH]3)C2)cc1 (centres undefined),inconclusive: -16.3% [inhibitor],
Cc1ccccc1NC(=O)/C=C1\SC(=O)NC1=O,,"inconclusive [inhibitor, partial curve, poor fit]"

SMILES,"activity change, negative = inhibition",Potency
O=c1c2ccccc2nc2ccccn12,,"inconclusive [activator, partial curve]"
CCOc1ccc(C2CC(c3c(O)c4ccccc4oc3=O)=NN2c2ccccc2)cc1OC (centres undefined),,"inconclusive [inhibitor, single point]"
COc1ccc(N2C(=O)[C@@H]3[C@H](C2=O)[C@H]2c4ccccc4C=CN2[C@@H]3C(C)=O)cc1,inactive: -7.68%,
CSc1nc(N)nc(C2CC2)n1,inconclusive: -15.8% [inhibitor],
Cc1cc(C)n(C(=O)c2ccc(C)c(S(=O)(=O)N3CCCC3)c2)n1,,"inconclusive [inhibitor, single point]"
COC(=O)c1ccc(CN2CCN(CC=C(C)C)C(CCO)C2)cc1 (centres undefined),inconclusive: 17.6% [activator],
NC(=O)N/N=C/c1ccccc1OC(=O)c1ccccc1Br,,"inconclusive [inhibitor, single point]"
O=C(N=Nc1c(O)n(Cc2ccccc2)c2ccccc12)c1ccc(O)cc1,,"inconclusive [inhibitor, single point]"
Cc1ccc(NC(=O)/C(=C/c2cccc(Br)c2)NC(=O)c2ccco2)cc1,,"inconclusive [inhibitor, full curve, poor fit]"
COC(=O)c1nn(-c2cccc(C(F)(F)F)c2)c(=O)cc1Sc1ccccn1,,"inconclusive [inhibitor, single point]"
COc1ccc2[nH]c(=O)c(CN(CCO)S(=O)(=O)c3ccc4c(c3)OCCO4)cc2c1,,"inconclusive [activator, single point]"
CCOC(=O)c1c(NC(=O)C(C)N2CCN(C(=O)c3ccco3)CC2)sc2c1CCCC2 (centres undefined),,"inconclusive [inhibitor, partial curve, poor fit]"
c1ccc(Nc2nc(NCC3CCCO3)c3ccccc3n2)cc1 (centres undefined),inconclusive: -19.4% [inhibitor],
CN(C1=NS(=O)(=O)c2ccccc21)c1ccc(OC(=O)c2ccncc2)cc1,inconclusive: 16.8% [activator],
CCS(=O)(=O)c1ccc(N=Nc2ccc(O)c3ncccc23)c(OC)c1,,"inconclusive [inhibitor, single point]"
Cc1onc(-c2c(F)cccc2Cl)c1C(=O)Nc1sc2c(c1C(N)=O)CCC2,,"inconclusive [inhibitor, single point]"
COc1ccc(OC)c(/C=C/C(=O)OCC(=O)Nc2cccc(Oc3ccccc3)c2)c1,,"inconclusive [activator, single point]"
On1c(-c2ccccc2)nc2ccc(Cl)cc21,,"inconclusive [inhibitor, single point]"
CCOc1ccc(-c2csc(/C(C#N)=C\c3ccc(O)c([N+](=O)[O-])c3)n2)cc1,,"inconclusive [inhibitor, single point]"
COc1ccc(-n2nc(C(=O)NCC(=O)N3CCN(c4ccccn4)CC3)c3ccccc3c2=O)cc1,,"inconclusive [inhibitor, partial curve]"
